{
  "source": "paper PMC4336329",
  "about": "(PLoS ONE, 2015)",
  "note": "About 2,200 (0.71%) of roughly 310,000 compounds showed an effect of 50% or more. Effects have a minus sign here. The list shows a part of the results.",
  "data": [
    {"biological_target": "human ether-à-go-go-related gene (hERG) potassium channel (human, UniProt Q12809)", "sequence (Q12809 whole entry, looked up)": "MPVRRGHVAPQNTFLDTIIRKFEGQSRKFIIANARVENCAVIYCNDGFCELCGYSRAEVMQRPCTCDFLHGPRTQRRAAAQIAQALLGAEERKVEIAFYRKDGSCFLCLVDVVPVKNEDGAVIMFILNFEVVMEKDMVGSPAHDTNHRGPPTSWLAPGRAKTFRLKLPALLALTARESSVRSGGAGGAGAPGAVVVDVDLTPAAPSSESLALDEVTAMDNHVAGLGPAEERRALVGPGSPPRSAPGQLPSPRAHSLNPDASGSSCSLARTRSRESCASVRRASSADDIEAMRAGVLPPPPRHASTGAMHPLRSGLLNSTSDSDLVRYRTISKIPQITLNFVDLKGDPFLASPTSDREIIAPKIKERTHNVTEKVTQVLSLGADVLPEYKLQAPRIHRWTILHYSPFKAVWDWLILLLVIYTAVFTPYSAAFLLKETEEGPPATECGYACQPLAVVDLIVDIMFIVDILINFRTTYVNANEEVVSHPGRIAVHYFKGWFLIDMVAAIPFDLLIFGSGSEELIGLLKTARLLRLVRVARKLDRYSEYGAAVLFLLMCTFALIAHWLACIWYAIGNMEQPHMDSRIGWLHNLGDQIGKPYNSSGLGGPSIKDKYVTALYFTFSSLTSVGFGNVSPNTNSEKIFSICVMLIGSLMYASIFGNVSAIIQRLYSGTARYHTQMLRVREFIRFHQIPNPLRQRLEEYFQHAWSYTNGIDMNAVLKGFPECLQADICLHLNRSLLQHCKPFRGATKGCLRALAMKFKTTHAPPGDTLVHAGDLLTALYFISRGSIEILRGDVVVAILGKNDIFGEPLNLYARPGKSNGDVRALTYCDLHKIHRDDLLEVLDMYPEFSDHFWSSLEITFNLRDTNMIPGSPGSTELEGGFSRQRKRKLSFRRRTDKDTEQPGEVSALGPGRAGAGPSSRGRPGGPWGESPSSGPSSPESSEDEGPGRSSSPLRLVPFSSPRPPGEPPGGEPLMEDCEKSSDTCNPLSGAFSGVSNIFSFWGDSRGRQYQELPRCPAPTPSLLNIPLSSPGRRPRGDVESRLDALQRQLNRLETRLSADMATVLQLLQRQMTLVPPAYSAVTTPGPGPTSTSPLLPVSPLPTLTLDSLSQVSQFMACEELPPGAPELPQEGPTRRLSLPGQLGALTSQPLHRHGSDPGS", "assay": "primary screen, population patch clamp on CHO cells stably expressing hERG", "units": {"hERG current change (%, negative = inhibition) at 1uM": "%"}, "values": [
      {"smiles": "O=C(OCC(=O)N1CCN(S(=O)(=O)c2ccc(Cl)cc2)CC1)C1CCC1", "hERG current change (%, negative = inhibition) at 1uM": 13.6},
      {"smiles": "Cc1cccc(N2CCN(CC(=O)N(C3CCCC3)C3CCS(=O)(=O)C3)CC2)c1C", "note": "(stereo not drawn)", "hERG current change (%, negative = inhibition) at 1uM": 3.4},
      {"smiles": "Cc1oc2c(C)c3oc(=O)c(CCC(=O)N[C@@H](CC(C)C)C(=O)O)c(C)c3cc2c1C", "hERG current change (%, negative = inhibition) at 1uM": 18.4},
      {"smiles": "Cc1cc(C(=O)NC2CCCC2)c2ccccc2n1", "hERG current change (%, negative = inhibition) at 1uM": 12.3},
      {"smiles": "CCOc1ccc(OCC)c(NC(=O)C2CCN(S(=O)(=O)c3c(C)noc3C)CC2)c1", "hERG current change (%, negative = inhibition) at 1uM": 0.823},
      {"smiles": "FC(F)(F)c1cccc(Nc2nc(N3CCOCC3)nc(N3CCOCC3)n2)c1", "hERG current change (%, negative = inhibition) at 1uM": 17.8},
      {"smiles": "CCCn1nnc(NC(=O)Cc2ccccc2)n1", "hERG current change (%, negative = inhibition) at 1uM": 10.7},
      {"smiles": "Cc1cccc(N(C(=O)CCC(=O)Nc2cc(C)on2)C(C(=O)NC2CCCC2)c2ccncc2)c1", "note": "(stereo not drawn)", "hERG current change (%, negative = inhibition) at 1uM": 17.2},
      {"smiles": "C[N+]1(C)CCN(c2ccccc2)CC1.[I-]", "hERG current change (%, negative = inhibition) at 1uM": 9.68},
      {"smiles": "Cc1oc(S(=O)(=O)N2CCCC2)cc1C(=O)Nc1ccccc1", "hERG current change (%, negative = inhibition) at 1uM": 11.1},
      {"smiles": "Cc1cccc2cc(C(c3nnnn3C3CCCC3)N3CCOCC3)c(=O)[nH]c12", "note": "(stereo not drawn)", "hERG current change (%, negative = inhibition) at 1uM": 8.2},
      {"smiles": "C/C(=N\\Nc1nc(N2CCOCC2)nc(N2CCOCC2)n1)c1cccs1", "hERG current change (%, negative = inhibition) at 1uM": 14.9},
      {"smiles": "C=CCOc1ccc(C(=O)NC2CCCCC2)cc1", "hERG current change (%, negative = inhibition) at 1uM": 11.7},
      {"smiles": "CC(=O)Nc1ccc(S(=O)(=O)N2CCN(Cc3ccccn3)CC2)cc1.O=C(O)C(=O)O", "hERG current change (%, negative = inhibition) at 1uM": 6.25},
      {"smiles": "COc1ccccc1NC(=O)C1=C(C)NC(=O)NC1c1cccs1", "note": "(stereo not drawn)", "hERG current change (%, negative = inhibition) at 1uM": 16.2},
      {"smiles": "CC(c1ccon1)N(C)Cc1cn(C)nc1-c1cccc(Cl)c1", "note": "(stereo not drawn)", "hERG current change (%, negative = inhibition) at 1uM": 4.88},
      {"smiles": "CSc1nsc(SC)c1NC(=O)Nc1ccccn1", "hERG current change (%, negative = inhibition) at 1uM": 0.09},
      {"smiles": "COCCn1c(C)cc(C(=O)CSc2nnc(-c3cccnc3)n2-c2ccccc2F)c1C", "hERG current change (%, negative = inhibition) at 1uM": 12.4},
      {"smiles": "C=CCN1C(=O)NC(c2ccc(OC)cc2)(C(F)(F)F)S/C1=C(\\C#N)c1nnc(N2CCOCC2)n1-c1ccccc1", "note": "(stereo not drawn)", "hERG current change (%, negative = inhibition) at 1uM": -13.2},
      {"smiles": "O=C(CNC(=O)c1ccccc1)N/N=C/c1ccc([N+](=O)[O-])s1", "hERG current change (%, negative = inhibition) at 1uM": 7.58},
      {"smiles": "Cc1ncoc1C(=O)Nc1ccc(Oc2ccccc2)cc1", "hERG current change (%, negative = inhibition) at 1uM": -5.18},
      {"smiles": "CC1(C)Cc2c(C#N)c(N)sc(=S)c2CS1", "hERG current change (%, negative = inhibition) at 1uM": 4.45},
      {"smiles": "COC(=O)C1=C(C)N(Cc2ccccc2)C(=NCc2cc(OC)c(OC)c(OC)c2)N[C@H]1c1ccccc1", "hERG current change (%, negative = inhibition) at 1uM": 0.452},
      {"smiles": "CN(C)CCN=Cc1c(O)n(Cc2ccccc2)c(=O)c2ccccc12", "hERG current change (%, negative = inhibition) at 1uM": -6.8},
      {"smiles": "Cc1ccc(NS(=O)(=O)c2ccc(OCC(=O)Nc3cccc([N+](=O)[O-])c3)c(C)c2)cc1", "hERG current change (%, negative = inhibition) at 1uM": -3.93},
      {"smiles": "CC(C)Cn1c(N)c(C(=O)CSc2ccc3c(c2)OCCO3)c(=O)n(C)c1=O", "hERG current change (%, negative = inhibition) at 1uM": 2.23},
      {"smiles": "Cc1ccc(C)c(NC(=O)c2c(Cl)nc3ccccn23)c1", "hERG current change (%, negative = inhibition) at 1uM": 8.88},
      {"smiles": "Cc1cccc(C(=O)Nc2c(C(=O)N(C)C)cnn2-c2ccccc2)c1", "hERG current change (%, negative = inhibition) at 1uM": 7.84},
      {"smiles": "C/C(=N\\Nc1ccccn1)c1cccs1", "hERG current change (%, negative = inhibition) at 1uM": 10.3},
      {"smiles": "Cc1ccc2[nH]cc(/C=C/c3cc[n+](C)cc3)c2c1.[I-]", "hERG current change (%, negative = inhibition) at 1uM": 9.99},
      {"smiles": "O=C(NC1CCCc2ccccc21)c1ccc(S(=O)(=O)N2CCOCC2)cc1", "note": "(stereo not drawn)", "hERG current change (%, negative = inhibition) at 1uM": 8.63},
      {"smiles": "O=C(NCC(c1cccs1)N1CCOCC1)c1cn(-c2ccccc2)nc1-c1ccc(F)cc1", "note": "(stereo not drawn)", "hERG current change (%, negative = inhibition) at 1uM": 6.86},
      {"smiles": "COC(=O)[C@H](C)NC(=O)NC(C)CCc1ccccc1", "note": "(stereo partly drawn)", "hERG current change (%, negative = inhibition) at 1uM": 5.2},
      {"smiles": "CCOc1ccccc1N(C)C(=O)c1cc2c(=O)n(CC)c3ccccc3c2s1", "hERG current change (%, negative = inhibition) at 1uM": 5.65},
      {"smiles": "O=C(CSc1nc(=O)n2ccccc2n1)Nc1ccc2c(c1)OCCO2", "hERG current change (%, negative = inhibition) at 1uM": 5.57},
      {"smiles": "CC(=O)Nc1ccc(S(=O)(=O)Nc2cc3c(cc2C(C)=O)OCO3)cc1", "hERG current change (%, negative = inhibition) at 1uM": 12.7},
      {"smiles": "COC(=O)c1sc(S(=O)(=O)NC(Cc2ccccc2)C(=O)O)c(C(=O)OC)c1C", "note": "(stereo not drawn)", "hERG current change (%, negative = inhibition) at 1uM": 13.9},
      {"smiles": "CC1=C(C(=O)OC(C)C)C(c2ccccc2Cl)CC(=O)N1", "note": "(stereo not drawn)", "hERG current change (%, negative = inhibition) at 1uM": 8.98},
      {"smiles": "O=C(Nc1ccccc1)c1ccc(NC(=O)C2CC2)cc1", "hERG current change (%, negative = inhibition) at 1uM": 8.74},
      {"smiles": "CCOC(=O)C1=C(C)N(C)C(=S)NC1c1cccc(Cl)c1Cl", "note": "(stereo not drawn)", "hERG current change (%, negative = inhibition) at 1uM": 8.7},
      {"smiles": "Oc1ccc(-c2nc3ccccc3s2)c(O)c1", "hERG current change (%, negative = inhibition) at 1uM": 14.2},
      {"smiles": "COC(=O)C1=C(N)Oc2cc(C)[nH]c(=O)c2C1c1ccc(Cl)cc1", "note": "(stereo not drawn)", "hERG current change (%, negative = inhibition) at 1uM": -3.06}
    ]}
  ]
}
